# Test results published in the supplement of paper PMC10037445.
# Over roughly 2,900 compounds, “IRF Lucia reporter activity, fold change vs agonist alone” has its median near 0.9; the highest 2% begin near 2.8. Some of the results follow.
# Key:
# RAW-Dual [1] = test: IRF Lucia reporter activity, fold change vs agonist alone; cytotoxicity flag (confluency mask): not cytotoxic; higher = enhanced IRF activity
# Method in brief: (§1)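 RAW-Dual macrophages (50,000 cells/well in DMEM, 384-well plates) received 50 nL of library stock by pin tool, then a PRR agonist 1 h later, and were kept at 37 °C, 5% CO2. After 20 hours, supernatant was read for IRF by QuantiLuc luminescence and for NF-κB by QuantiBlue absorbance at 620 nm. Reporter activity is fold change over agonist-alone wells. Cytotoxic wells had IncuCyte confluency below 70% of agonist controls in both mask sets.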
# RAW-Dual [2] = test: IRF Lucia reporter activity, fold change vs agonist alone; higher = enhanced IRF activity; details: cytotoxicity flag (confluency mask): not cytotoxic, agonist: MPLA (TLR4) […]
# Method in brief: as §1
# RAW-Dual [3] = test: IRF Lucia reporter activity, fold change vs agonist alone; cytotoxicity flag (confluency mask): cytotoxic (confluency <70% of control); higher = enhanced IRF activity
# Method in brief: as §1
# [4] = agonist: 3'3'-cGAMP (STING) 10 ug/mL
# [5] = library stock concentration (final ~1000-fold dilution): 10 mM
compound,measurement,setting,value
N#Cc1cc(N2CCC(C(=O)N3N=CCC3c3cc(F)cc(F)c3)CC2)ncn1 (stereo not drawn) (library stock concentration (final ~1000-fold dilution): 10 mM),IRF Lucia reporter activity,RAW-Dual [1]; [4],0.715
same,IRF Lucia reporter activity,RAW-Dual [1]; agonist: LPS (TLR4) 0.1 ug/mL,0.991
CC(Nc1nc(N2CCCC2)nc2ccccc12)c1ccccc1 (stereo not drawn) (library stock concentration (final ~1000-fold dilution): 10 mM),IRF Lucia reporter activity,RAW-Dual [1]; [4],0.531
same,IRF Lucia reporter activity,RAW-Dual [1]; agonist: LPS (TLR4) 0.1 ug/mL,1.39
O=S(=O)(O)CCCS(=O)(=O)O (library stock concentration (final ~1000-fold dilution): 10 mM water),IRF Lucia reporter activity,RAW-Dual [1]; [4],1.36
same,IRF Lucia reporter activity,RAW-Dual [1]; agonist: LPS (TLR4) 0.1 ug/mL,0.821
O=S(=O)(O)CCCS(=O)(=O)O,IRF Lucia reporter activity,RAW-Dual [2]; library stock concentration (final ~1000-fold dilution): 10 mM water,1.09
Nc1cccc2c1CN(C1CCC(=O)NC1=O)C2=O (stereo not drawn) (library stock concentration (final ~1000-fold dilution): 10 mM),IRF Lucia reporter activity,RAW-Dual [1]; [4],1.06
same,IRF Lucia reporter activity,RAW-Dual [1]; agonist: LPS (TLR4) 0.1 ug/mL,0.986
Nc1cccc2c1CN(C1CCC(=O)NC1=O)C2=O (stereo not drawn),IRF Lucia reporter activity,RAW-Dual [2]; [5],1.06
Cc1cccc2c3c(ccc12)C1=C(C(=O)C3=O)C(C)CO1 (stereo not drawn) (library stock concentration (final ~1000-fold dilution): 10 mM),IRF Lucia reporter activity,RAW-Dual [1]; [4],0.0995
same,IRF Lucia reporter activity,RAW-Dual [1]; agonist: LPS (TLR4) 0.1 ug/mL,0.359
NC(=S)N/N=C/c1ncccc1N (library stock concentration (final ~1000-fold dilution): 10 mM),IRF Lucia reporter activity,RAW-Dual [1]; [4],0.432
same,IRF Lucia reporter activity,RAW-Dual [1]; agonist: LPS (TLR4) 0.1 ug/mL,0.833
NC(=S)N/N=C/c1ncccc1N,IRF Lucia reporter activity,RAW-Dual [2]; [5],0.705
CCCCCCCCOC(=O)c1cc(O)c(O)c(O)c1 (library stock concentration (final ~1000-fold dilution): 10 mM),IRF Lucia reporter activity,RAW-Dual [3]; [4],0.0201
same,IRF Lucia reporter activity,RAW-Dual [3]; agonist: LPS (TLR4) 0.1 ug/mL,0.24
COc1ccc(CNC(=O)Nc2ncc([N+](=O)[O-])s2)cc1,IRF Lucia reporter activity,RAW-Dual [2]; [5],0.897
COc1ccc(CNC(=O)Nc2ncc([N+](=O)[O-])s2)cc1 (library stock concentration (final ~1000-fold dilution): 10 mM),IRF Lucia reporter activity,RAW-Dual [1]; [4],0.715
same,IRF Lucia reporter activity,RAW-Dual [1]; agonist: LPS (TLR4) 0.1 ug/mL,0.64
Cn1c2ccccc2c2c3c(c4c5ccccc5n(CCC#N)c4c21)CNC3=O (library stock concentration (final ~1000-fold dilution): 10 mM),IRF Lucia reporter activity,RAW-Dual [1]; [4],0.0296
same,IRF Lucia reporter activity,RAW-Dual [1]; agonist: LPS (TLR4) 0.1 ug/mL,0.187
Cn1c2ccccc2c2c3c(c4c5ccccc5n(CCC#N)c4c21)CNC3=O,IRF Lucia reporter activity,RAW-Dual [2]; [5],0.203
O=C(O)c1ccc2c3c1cccc3c(=O)n1c3ccccc3nc21 (library stock concentration (final ~1000-fold dilution): 10 mM),IRF Lucia reporter activity,RAW-Dual [1]; [4],0.485
same,IRF Lucia reporter activity,RAW-Dual [1]; agonist: LPS (TLR4) 0.1 ug/mL,0.247
N#CC1CCCN1C(=O)CNC12CC3CC(CC(O)(C3)C1)C2 (stereo not drawn) (library stock concentration (final ~1000-fold dilution): 10 mM),IRF Lucia reporter activity,RAW-Dual [1]; [4],0.994
same,IRF Lucia reporter activity,RAW-Dual [1]; agonist: LPS (TLR4) 0.1 ug/mL,1.05
N#CC1CCCN1C(=O)CNC12CC3CC(CC(O)(C3)C1)C2 (stereo not drawn),IRF Lucia reporter activity,RAW-Dual [2]; [5],0.924
